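All cell lines were grown in 96-well plates and treated with compound for 48 hours. GI50 is the concentration that inhibits growth by half. TGI: concentration producing complete growth inhibition.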
Test system: NCI-H322M lung
Assay: NCI tumour cell line growth inhibition, 48 h

SMILES	GI50 [µM]	TGI [µM]
CC[C@]12C=CCN3CC[C@@]4(c5ccc(OC)cc5N(C)[C@H]4[C@@](O)(C(=O)OC)[C@@H]1OC(=O)CCCC[P+](c1ccc(C)cc1)(c1ccc(C)cc1)c1ccc(C)cc1)[C@@H]32	1.23	5.21
O=C(N/N=C/c1ccc(-c2ccc(O)cc2)o1)c1[nH]c2ccc(Br)cc2c1-c1ccccc1	2.51	21.9
Nc1nc(-c2ccccc2)c(N=Nc2ccc(Cl)cc2Cl)s1	5.57	19
CC(C)NC(=O)c1cc(-c2ccc(NC(=O)Nc3ccc(N4CCN(C)CC4)c(C(F)(F)F)c3)cc2)nc2cccnc12	2.12	4.68

Reference: PubChem BioAssay (NCI)
